Measurements from PubChem BioAssay AID1346428 (National Center for Advancing Translational Sciences (NCATS), 2018).
Among all 48,000 compounds or so, about 1,200 (2.5%) were called active. About 2% were inconclusive and are not listed.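 The calls were made as follows: active = activation of at least 60% and not above a set upper limit (about 1 call in 100 departs from these limits); inconclusive = activation of 40% to 60%, or above that upper limit; inactive = activation under 40%.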 The list shows a part of the results.

Each compound was assayed against Probable G-protein coupled receptor 32 (Homo sapiens) (UniProt O75388) (assay: qHTS for Agonists of Human Resolvin D1 Receptor DRV1). Settings: CHO-K1 GPR32 beta-arrestin PathHunter luminescence, 90 min; at 76.9 µM; hits give high values; zero percent set by DMSO-only wells.
How it was run: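 Agonism was scored as beta-arrestin recruitment to ProLink-fused GPR32 in stably transfected CHO-K1 cells, giving a chemiluminescent beta-Gal signal; compounds were incubated 90 min at 37 °C.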
Also: 0% is about no effect.

Chain of UniProt O75388 (O75388 whole entry, looked up, the tested form may be a part): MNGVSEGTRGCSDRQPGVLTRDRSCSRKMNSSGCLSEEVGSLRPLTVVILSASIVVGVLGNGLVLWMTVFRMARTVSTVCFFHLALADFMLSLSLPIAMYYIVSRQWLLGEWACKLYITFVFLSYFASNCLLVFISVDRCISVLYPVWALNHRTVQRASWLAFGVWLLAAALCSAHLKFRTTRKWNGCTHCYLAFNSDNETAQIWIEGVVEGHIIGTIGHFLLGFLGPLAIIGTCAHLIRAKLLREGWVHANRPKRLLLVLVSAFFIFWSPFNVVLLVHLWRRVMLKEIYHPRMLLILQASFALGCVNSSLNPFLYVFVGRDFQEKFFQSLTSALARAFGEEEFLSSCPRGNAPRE

activation, inactive:
Cc1ccc(-n2ncc3c(N(CC(C)C)CC(C)C)ncnc32)c(C)c1 29.6%
CCN(CCCNC(=O)c1cc(Nc2ccc(OC)cc2OC)nc2ccccc12)c1cccc(C)c1 -3.06%
Cc1ccc(CCNC(=O)c2c(C)oc3nc(C)nc(N4CCOCC4)c23)cc1 -19.2%
Cn1cc(-c2cc3n(n2)CCC(=O)N3CC(=O)NCc2ccc(Cl)cc2)c2ccccc21 30.3%
CCc1nc2ccc(C(=O)NCc3cccc(Br)c3)cc2nc1CC -26.6%
COc1ccc(-c2nc3ccccc3s2)cc1NC(=O)COc1cccc(C)c1 -19.3%
O=c1c(N2CCCCC2)csc2ccc(F)cc12 8.2%
CCc1ccc(S(=O)(=O)Nc2cc3c(cc2N2CCOCC2)n(C)c(=O)c(=O)n3C)cc1 -3.86%
CCOc1ccc(NC(=O)C(=O)NCCc2ccccc2)cc1 -4.7%
COc1ccc(C)cc1NC(=O)N1CCN(c2nnc(C)c3c(C)n(-c4ccccc4)nc23)CC1 -11.3%
O=C(Cn1c(=O)n(CCCS(=O)(=O)C2CCCCC2)c(=O)c2ccccc21)Nc1ccc(F)c(Cl)c1 -2.75%
Cc1cc(C)cc(NC(=O)CCCn2c(=O)c3cccn3c3ccccc32)c1 -12.6%
CCOc1ccc(NC(=O)CC2C(=O)N(c3ccccc3)C(=O)N2Cc2cccc(OC)c2)cc1 (stereo unspecified) -13.5%
O=C(c1cnc(N2CCCCC2)c2ccccc12)N1CCN(c2cccc(Cl)c2)CC1 -28.8%
COCCCNC(=O)c1nn(-c2ccc(C)cc2)c(=O)n(C)c1=O 3.35%
CCc1cccc(NC(=O)Cn2ncc3c([nH]c4ccc(C)cc43)c2=O)c1 -11%
CCOc1ccccc1NC(=O)CCc1c(C)nc2c3cccnc3nn2c1C -9.43%
CCCCNc1sc(S(=O)(=O)CCC)nc1S(=O)(=O)c1ccc(C)cc1 -25%
COc1ccc(Cl)cc1C1CC(=O)Nc2cc3c(cc21)OCCO3 (stereo unspecified) -9.58%
CCNC(=O)c1c2c(nc3ccccc13)C(=O)N(C1CCCCC1)C2 -1.2%
O=C(Cn1c(SCc2ccccc2F)nc2cccnc21)Nc1ccc(F)c(Cl)c1 -3.68%
Cc1ccc(CN2C(=O)c3ccccc3Sc3ccc(C(=O)NC4CCCC4)cc32)cc1 2.06%
O=C(NC1CC(=O)N(c2ccccc2)C1)c1ccco1 (stereo unspecified) 2.74%
Cc1ccc(C(=O)N2CCc3cc(CNC(=O)CCc4ccccc4)ccc32)cc1 -36.5%
CCc1cccc(NC(=O)CN(c2ccc(C)cc2)S(=O)(=O)c2cccs2)c1 6.71%
O=C(Nc1ccc(F)cc1)Nc1ccc2snnc2c1 39.1%
CCNC(=O)C1CCN(Cc2cc3ccccc3n2Cc2ccc(C)cc2)CC1 -3.57%
CCOC(=O)c1c(C)oc2nc(C)nc(N3CCN(c4ccc(OC)cc4)CC3)c12 -16.6%
CCOc1ccccc1CNC(=O)CCCN1C(=O)c2cccnc2Oc2ccc(Cl)cc21 -27.1%
COc1ccccc1Cn1c(SCC(=O)C(C)(C)C)nc2ccccc2c1=O -6.21%
O=C(OCCN1CCOCC1)C1(c2ccccc2)CCCCC1 -12.7%
O=C(c1cccn1-c1nnc(N2CCCCC2)s1)N1CCN(c2ccccc2)CC1 -15.9%
Clc1cccc(CSc2ccc(-c3cccs3)nn2)c1 -21.5%
COC(=O)CN1C(C(=O)c2ccccc2)=C(OC(=O)c2ccc(C)cc2)c2ccccc2S1(=O)=O 0.589%
CCS(=O)(=O)c1ccccc1C(=O)N1CCN(c2nc3ccccc3s2)CC1 15.1%
N#Cc1ccc(CSc2nnc(-c3ccc(Br)cc3)o2)cc1 -10.9%
CCn1c(=O)c2sccc2n2c(CCC(=O)NCc3ccc(Cl)cc3)nnc12 -8.03%
Cc1oc(-c2cccc(Cl)c2)nc1CSCC(=O)NCc1ccccc1Cl 5.69%
CCOC(=O)C1CCN(C(=O)Cn2ncc3c4ccccc4n(C)c3c2=O)CC1 10.5%
COc1ccc(CNC(=O)CCCN2C(=O)c3cccnc3Oc3ccc(Cl)cc32)cc1 -21.3%
Cc1cccc(NS(=O)(=O)c2nnc(NC(=O)c3cccc(C)c3)s2)c1 21.8%
Cc1ccc(-n2c(SCC(=O)Nc3ccc4c(c3)OCCO4)nc3c([nH]c4ccccc43)c2=O)cc1 -19.8%
Cc1csc2nc(COC(=O)c3ccc(NC(=O)C(C)C)cc3)cc(=O)n12 0.626%
CC(C)OCCCNC(=O)CN1C(=O)COc2ccc(S(=O)(=O)N3CCOCC3)cc21 -2.64%
COc1ccccc1NC(=O)c1ncoc1-c1ccco1 -0.104%
Cc1cccc(NC(=O)c2cc3c(=O)n4ccccc4nc3n2C)c1C -4.34%
CCCCNC(=O)Cn1cnc2sc(C)c(S(=O)(=O)N3CCN(c4ccccc4OC)CC3)c2c1=O 1.14%
COCCNC(=O)c1ccc(-c2nc(CN3CCc4ccccc43)c(C)o2)cc1 13.2%
Cc1ccc(OCC(=O)Nc2sc3c(c2C(N)=O)CCCC3)c(C(C)(C)C)c1 8.11%
CCOC(=O)c1ccc(NC(=O)CN2CCCCC2)cc1 -23.5%
O=C(Cn1ncc2c3ccccc3n(Cc3ccccc3F)c2c1=O)NCCCc1ccccc1 -5.95%
CC(CC(C#N)(c1ccccc1)C(C)C)N(C)C (stereo unspecified) -33.7%
CCOc1ccc2nc(NC(=O)c3ccccc3)sc2c1 1.1%
CCOc1ccccc1C(=O)N(Cc1ccco1)Cc1ccccc1F -27.8%
COC(=O)c1ccccc1NC(=O)CSc1nc2nc(C)cc(C)n2n1 -4.26%
COc1ccc(-c2noc(-c3ccc(NC4CCCCC4)c([N+](=O)[O-])c3)n2)cc1 18.7%
